# Measurements from PubChem BioAssay AID1468 (National Center for Advancing Translational Sciences (NCATS), 2008).
# The campaign covered roughly 280,000 compounds. About 1,100 (0.39%) were called active. Inconclusive means that the source gave no clear call. Such entries were picked first, then a sample of the others. Calls follow the shape of the dose curve; as a rule, active = well fitted inhibition curve with a large enough effect; inconclusive = small, poorly fitted or top-dose-only effect, or effect the other way; inactive = flat fitted curve, though single readings scatter. No potency is given beside an inconclusive call; the fits are too rough.
# Target: Microtubule-associated protein tau (Homo sapiens) (UniProt P10636)
# Experiment: qHTS for Inhibitors of Tau Fibril Formation, Fluorescence Polarization; also: nearly all actives have a fitted effect of over 55% in size
# Conditions: K18 P301L tau heparin fibrillization, Alexa594 FP, 6 h; series mostly up to 57.7 µM
# How it was run: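 Read-out: fluorescence polarization of Alexa 594-labeled tau (0.24 uM), 555 nm excitation, 632 nm emission. Mixtures held 15 uM unlabeled K18 P301L, compound and 20 uM heparin, pH 7 acetate buffer, incubated 6 hr at 37 C.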
# Potency is read from the fitted curve at half-maximal effect; tags tell the direction and shape of the fitted curve.
# UniProt P10636, sequence (P10636 whole entry, looked up): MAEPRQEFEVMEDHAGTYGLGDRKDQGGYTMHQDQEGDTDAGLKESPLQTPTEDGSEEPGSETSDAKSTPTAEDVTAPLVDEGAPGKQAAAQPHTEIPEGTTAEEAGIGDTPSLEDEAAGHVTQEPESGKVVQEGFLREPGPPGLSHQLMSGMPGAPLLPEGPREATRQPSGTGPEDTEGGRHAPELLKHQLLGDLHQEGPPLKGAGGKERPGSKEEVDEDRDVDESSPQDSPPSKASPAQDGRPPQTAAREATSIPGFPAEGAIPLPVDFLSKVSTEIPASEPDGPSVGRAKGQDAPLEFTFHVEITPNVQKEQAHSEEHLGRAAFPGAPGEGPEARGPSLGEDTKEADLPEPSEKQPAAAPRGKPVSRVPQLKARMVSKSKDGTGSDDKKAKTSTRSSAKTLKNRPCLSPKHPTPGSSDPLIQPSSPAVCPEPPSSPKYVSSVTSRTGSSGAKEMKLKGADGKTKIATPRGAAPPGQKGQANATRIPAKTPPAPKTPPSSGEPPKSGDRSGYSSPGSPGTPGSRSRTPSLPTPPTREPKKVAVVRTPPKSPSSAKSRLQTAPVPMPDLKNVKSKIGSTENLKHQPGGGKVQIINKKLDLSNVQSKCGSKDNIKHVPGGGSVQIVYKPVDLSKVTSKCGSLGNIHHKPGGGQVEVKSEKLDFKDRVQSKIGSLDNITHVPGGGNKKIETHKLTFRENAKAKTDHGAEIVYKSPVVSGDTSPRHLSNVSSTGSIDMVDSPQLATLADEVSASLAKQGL
row,Structure (SMILES),Potency
1,COc1cccc(-c2nc(SCC(=O)Nc3ccc4c(c3)OCCO4)c(-c3ccc(C)cc3)[nH]2)c1,"inconclusive [activator, single point]"
2,Cc1ccc(NC(=S)/C(=C(\[O-])c2ccc(C)c([N+](=O)[O-])c2)[n+]2ccccc2)cc1C,inactive
3,CN(CC(O)COc1c(F)cc(Br)cc1F)C1CCCCC1 (stereo not given),"inconclusive [inhibitor, single point]"
4,Cc1c(N2C(=O)/C(=C\C3CC=CCC3)SC2=S)c(=O)n(-c2ccccc2)n1C (stereo not given),"inconclusive [inhibitor, full curve, poor fit]"
5,Cc1ccc(-c2cc3ncc4c(n3n2)-c2cc(Cl)ccc2OC4)cc1,inactive
6,CC([NH2+][O-])C(C)(C)NO (stereo not given),inactive
7,CCC(=O)N1CCN(c2nc3ccccc3s2)CC1,inactive
8,CCOC(=O)C(=CNc1cccc(N)n1)C(=O)OCC,"inconclusive [inhibitor, partial curve, poor fit]"
9,CCC(C)(C)C1CCc2c(sc(N)c2C(N)=O)C1 (stereo not given),inactive
10,CCOC(=O)c1c(C)oc2c1c1c(c3ccccc32)OCN(Cc2ccccn2)C1,"inconclusive [activator, partial curve, poor fit]"
11,Cc1ccc(NS(=O)(=O)c2ccc3nc(-c4ccccc4)[nH]c3c2)c(Br)c1,"inconclusive [inhibitor, partial curve]"
12,CN(C)c1ccc(SC#N)cc1,"inconclusive [inhibitor, full curve]"
13,O=C(/C=C/c1ccc(Cl)cc1)N1CCC(c2nc3ccccc3o2)CC1,inactive
14,O=c1c2sc3nc(N4CCOCC4)c4c(c3c2ncn1-c1ccccc1)CCCC4,"inconclusive [inhibitor, single point]"
15,O=C(O/N=C\c1ccc(N2CCOCC2)c([N+](=O)[O-])c1)c1ccccc1Cl,inactive
16,Oc1ccc(/C=N/N(Cc2ccccc2)c2ccccc2)cc1,"inconclusive [inhibitor, single point]"
17,COc1ccc(/C(C)=N/Nc2nc3ccccc3nc2C)cc1OC,"inconclusive [activator, single point]"
18,CC[N+]1=C(C)C(C)(C)c2cc(C)ccc21,"inconclusive [activator, full curve, poor fit]"
19,O=C(c1cc(-c2ccc(F)cc2)on1)N1CCN(c2ccc(F)cc2)CC1,"inconclusive [inhibitor, partial curve, poor fit]"
20,O=C(Nc1ccc(Br)cc1)Nc1ccccc1Cl,"inconclusive [inhibitor, single point]"
21,CCn1c(C(=O)Nc2ccc(C)cc2C)cc2sc(Cl)cc21,inactive
22,Oc1ccccc1C1=Nc2ccccc2N=C(c2cccs2)C1,"inconclusive [inhibitor, single point]"

row,Structure (SMILES),Potency
1,CC(C)(C)C1CCc2onc(C(=O)Nc3sc4c(c3C#N)CCCC4)c2C1 (stereo not given),"inconclusive [inhibitor, single point]"
2,C[C@H]1CC2[C@@H]3CCC4=CC(=O)C=C[C@]4(C)[C@@]3(Cl)[C@@H](O)C[C@]2(C)[C@@]1(O)C(=O)CO (stereo not given in full),"inconclusive [inhibitor, single point]"
3,CC(C)c1ccc(CNc2nc(-c3ccco3)nn2S(=O)(=O)c2ccc(F)cc2)cc1,"inconclusive [inhibitor, partial curve]"
4,CCC(C)c1ccc(NC(=O)C2CCN(c3ccc(C(F)(F)F)cn3)CC2)cc1 (stereo not given),"inconclusive [inhibitor, single point]"
5,CC(C)(C)NC(=S)NCc1ccco1,"inconclusive [inhibitor, single point]"
6,O=C(COc1ccccc1-c1ccccc1)N/N=C/c1ccc2ccccc2c1,"inconclusive [inhibitor, single point]"
7,COc1ccc(NC(=S)N2CCN(Cc3ccco3)CC2)c(OC)c1,inactive
8,N/C(=N\OS(=O)(=O)c1ccccc1)c1ccncc1,"inconclusive [inhibitor, partial curve, poor fit]"
9,Cc1cccc(NC(=O)CSc2nc3n[nH]c(C)c3c(=N)n2-c2cccc(Cl)c2)c1,"inconclusive [inhibitor, partial curve]"
10,O=C(NCc1cccs1)c1ccc(N2CCCC2=O)cc1,inactive
11,CCCCNc1oc(-c2ccc(OC)cc2)nc1S(=O)(=O)c1ccccc1,inactive
12,COc1ccc(/C=N/Nc2cc(C)nc(-n3nc(C)cc3C)n2)c(OC)c1,"inconclusive [activator, partial curve, poor fit]"
13,COc1cc(/C=N/NC(=O)C(=O)NCc2ccco2)cc(Cl)c1O,"inconclusive [inhibitor, full curve, poor fit]"
14,O=C(Cn1c(=O)c(CNc2ccccc2)cc2cc3c(cc21)OCCO3)Nc1ccccc1Cl,"inconclusive [inhibitor, partial curve]"
15,CC(C)CCN(CCC(C)C)C/C(O)=C(\C#N)c1nc(-c2ccccc2)cs1,"inconclusive [activator, partial curve, poor fit]"
16,CCn1c(C)nc2cc(C(=O)N/N=C/c3ccc(O)c(O)c3O)ccc21,active: 7.94 µM
17,O=[N+]([O-])c1cc(C(F)(F)F)ccc1NCCCCNS(=O)(=O)c1ccc(Cl)cc1,inactive
18,Cc1ccc(OCCCC(=O)Nc2nncs2)cc1,"inconclusive [inhibitor, single point]"
19,CCCCCn1ccc(=O)c2c(C(F)(F)F)nccc21,"inconclusive [activator, single point]"
20,COc1ccc(C(=O)Nc2ccc(OC)c([N+](=O)[O-])c2)cc1Br,"inconclusive [inhibitor, single point]"
21,COc1ccc(NC(=O)c2cc3c([nH]c4ccccc43)c(C)n2)cc1,"inconclusive [inhibitor, single point]"
22,O=[N+]([O-])c1ccc(/C=N/n2cn[nH]c2=S)cc1,inactive

row,Structure (SMILES),Potency
1,FC(F)(F)c1cc(Nc2nc3ccccc3c3nncn23)ccc1Cl,active: 10 µM
2,COc1ccc(OC(=O)c2cc3ccccc3o2)cc1,"inconclusive [inhibitor, single point]"
3,COC(=O)[C@@H]1CC[C@H](C)[C@@H](c2ccc(C)cc2)N1C(=O)c1ccc(/C=N/O[C@@H](C)CN2CCCCc3nc(C)c(C)cc32)cc1,inactive
4,O=C(CSc1nc(-c2ccco2)cc(C(F)(F)F)n1)NCCCn1ccnc1,"inconclusive [inhibitor, single point]"
5,O=C(COc1ccccc1)Nc1cccc(-c2nc3ccccc3[nH]2)c1,"inconclusive [inhibitor, partial curve, poor fit]"
6,Cc1ccc(NC(=O)/C=C/c2ccco2)cc1F,"inconclusive [inhibitor, partial curve]"
7,COc1ccc(Cl)cc1NC(=O)CSc1nc2c(oc3ccccc32)c(=O)n1Cc1ccco1,"inconclusive [inhibitor, single point]"
8,Cc1cccc(-c2nc3scc(CCNS(=O)(=O)c4ccc(F)c(C(F)(F)F)c4)n3n2)c1,"inconclusive [inhibitor, partial curve, poor fit]"
9,COc1cc(C(=O)Nc2ccc3c(c2)C(=O)N(CCC(=O)O)C3=O)cc(OC)c1OC,"inconclusive [inhibitor, single point]"
10,COc1ccc(OC)c(Nc2sc(C(=O)c3ccccc3)c(N)c2S(=O)(=O)c2ccccc2)c1,"inconclusive [inhibitor, single point]"
11,COc1ccc(C(=O)COC(=O)c2cc(-c3cccs3)nc3ccccc23)cc1,"inconclusive [inhibitor, partial curve]"
12,Cc1ccccc1NC(=O)Cn1c(=O)n(CCc2ccccc2)c(=O)c2ccccc21,"inconclusive [inhibitor, single point]"
13,Cc1ccc(OCc2ccc(C(=O)Nc3c(C)nn(Cc4c(F)c(F)c(F)c(F)c4F)c3C)o2)c([N+](=O)[O-])c1,"inconclusive [activator, single point]"
14,CC(C)CC1=NN2C(=N)/C(=C\c3coc4ccccc4c3=O)C(=O)N=C2S1,"inconclusive [inhibitor, single point]"
15,C[C@@H](C(=O)Nc1ccc2ccccc2c1)[C@@H]1C[C@@]1(C)[C@@H](NC(=O)c1cnccn1)c1ccccc1,"inconclusive [inhibitor, full curve, poor fit]"
16,O=S(=O)(c1ccc2ccccc2c1)N1CCN(C(=S)Nc2ccc(F)cc2)CC1,"inconclusive [inhibitor, partial curve, poor fit]"
17,COc1ccc(Br)cc1[C@@H]1Nc2ccc(C(=O)O)cc2[C@@H]2C=CC[C@@H]21,inactive
18,COc1ccc(N2CCN(S(=O)(=O)c3ccc(-c4ccno4)cc3OC)CC2)cc1,"inconclusive [activator, single point]"
19,COc1ccccc1N1CCN(C(=O)Nc2cccc(C)c2)CC1,"inconclusive [inhibitor, partial curve]"
20,CCOc1ccc(/C=C/c2nc(C#N)c(NC(C)c3ccccc3)o2)cc1 (stereo not given),"inconclusive [activator, full curve, poor fit]"
21,CC(C)NC[C@H](O)c1ccc(O)c(O)c1,"inconclusive [inhibitor, single point]"
